# Measured values taken from publication PMC6212790.
# Some of the results follow. At the low end of the ranking the order means little.
# Target: T1, GST-Rok (full length) (UniProt O34857)
# T1 sequence: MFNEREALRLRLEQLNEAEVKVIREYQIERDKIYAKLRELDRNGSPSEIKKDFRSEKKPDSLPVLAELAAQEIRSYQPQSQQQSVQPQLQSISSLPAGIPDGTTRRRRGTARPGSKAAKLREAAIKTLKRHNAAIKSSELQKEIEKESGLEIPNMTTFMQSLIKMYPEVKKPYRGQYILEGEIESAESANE
# Test: protein binding microarray;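 further: rank score from −0.5 (least bound) to 0.5 (best bound)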
# Conditions: Rok is a gene silencer of Bacillus subtilis; high values mean tight binding; most listed sequences are background and not binding sites; double strand, one strand shown
row,Sequence,binding signal [E-score]
1,CAGCTCGC,-0.191
2,AAACACGA,0.168
3,GGTCTTAC,-0.12
4,TCAAAGAA,0.0682
5,CATCATGG,-0.0446
6,ACAGAGTG,-0.0192
7,CGGCCGTA,-0.0236
8,GCTTTACC,0.0377
9,AGCCATGC,-0.176
10,TGCCAGCA,0.156
11,AGCAGAAG,-0.0224
12,GACACACC,-0.201
13,GACGCCTC,-0.276
14,ATAAATTA,0.347
15,GGGCCCGA,-0.25
16,ATTCCCGA,-0.0158
17,CGGGGAAC,-0.172
18,CGGGCTTC,-0.122
19,ACCTGATG,-0.00581
20,GCTGTGTA,0.137
21,GGCCGGAC,-0.269
22,CAGGCTGA,-0.0829
23,ATTCAACA,0.0903
24,AATGCACG,-0.0533
25,GCCATGTA,0.135

row,Sequence,binding signal [E-score]
1,AAAATCGT,0.131
2,CATACTAA,0.125
3,CAACAGCG,-0.0866
4,CGTTGATC,0.138
5,ACCACGTA,-0.0124
6,AAGCACCG,-0.263
7,ACACTCGA,-0.0663
8,ACGGCCAC,-0.322
9,CCAGATTC,-0.0638
10,CGACTGTA,0.131
11,CGCGACAG,0.0354
12,ATAAGACG,-0.0152
13,ACACTCGG,0.0686
14,AGTTGTCG,0.0774
15,CAGATTTA,0.226
16,CAACGTCG,0.0704
17,TTACAAAA,-0.00568
18,TAGCTTCA,0.13
19,ACTTCGTG,0.00998
20,CGCGTGAG,-0.176
21,GACCGTGA,-0.136
22,AAAGAGCG,-0.0664
23,ACAACCTG,0.016
24,GCTTTCAC,0.0622
25,CATTTGGA,-0.0049

row,Sequence,binding signal [E-score]
1,AGTGTTCC,-0.101
2,AGAACGTA,0.121
3,AACCCCCG,-0.336
4,ATCTTGAC,0.0686
5,ATAGCCGC,0.0244
6,CAAAGACG,-0.0713
7,CGGCGCCG,-0.234
8,GACATTAA,0.00348
9,AGGTCGGC,-0.248
10,CGGTGACG,-0.171
11,ACTCCGGA,-0.0444
12,ACGGACGT,-0.114
13,AACAATGA,0.126
14,AGGTTATA,0.0945
15,GAGGGAGC,-0.36
16,ATCACAAA,0.225
17,CGAAGTTC,0.0046
18,AGACTTGA,-0.116
19,CCGTGTAA,0.0877
20,CTGCAGTA,0.221
21,GTATTAAA,0.109
22,CCAGTGCC,-0.167
23,AGTTCGCC,0.151
24,AGTAACAG,0.185
25,AAAACGTA,0.269

row,Sequence,binding signal [E-score]
1,ACGCCCGG,-0.344
2,CAAGCCGG,-0.305
3,ACCGACGT,-0.0735
4,GGAGAGGA,-0.315
5,CGTGAAAC,-0.112
6,CAGCTCCA,-0.182
7,ACCACTAG,0.0844
8,CGGTCTCA,-0.0583
9,ACTGGCGA,-0.0516
10,CCAGTGTC,-0.227
11,CAATTCCG,-0.0331
12,AATTTACT,0.384
13,GTCGTGGA,0.00574
14,ACGATTTC,0.0369
15,CACCGTTC,-0.0705
16,CCCAAACG,0.051
17,CGCCTTGC,-0.395
18,GGTACTTA,0.143
19,CGATATCC,0.111
20,CATAACGC,0.138
21,GACTCTTA,-0.104
22,AGGTGAGA,-0.127
23,ATTGGTCG,0.0283
24,CCGCTCAG,-0.0853
25,GCGAACGA,-0.127

row,Sequence,binding signal [E-score]
1,ACACGACG,0.0831
2,GCCGGGCA,-0.369
3,TGGCCCCA,-0.241
4,CTCCAACA,-0.0396
5,ATTATCTC,-0.0512
6,ATGTGTCA,0.112
7,ATCGGTTC,-0.00135
8,CTATAAAG,0.14
9,ACCCGTGA,-0.212
10,CGGAGTGC,-0.265
11,AAGTCGGT,0.147
12,CAGCGGTA,0.166
13,ACCAGTCC,-0.115
14,ACACGTAC,-0.02
15,GGCGTAAC,-0.129
16,ACCATCCC,0.138
17,CCTAAGAA,-0.00097
18,AGCCCATA,-0.099
19,CTCTGCAA,-0.0816
20,ACCTCGAT,0.143
21,AGTGTAAA,0.307
22,CCGAAACA,-0.00129
23,CGGGAAGC,-0.0863
24,CGCATACC,-0.0972
25,CCAAGCAC,-0.214

row,Sequence,binding signal [E-score]
1,CTCTGGGA,-0.154
2,AAAGCGGC,-0.226
3,CCTCCGCA,-0.255
4,GTCGCGAA,-0.0961
5,GTCGTAAA,0.0437
6,AGTATGAC,0.101
7,ATTAACGC,0.0477
8,AGGAAGAA,-0.0233
9,CGAAATCC,-0.128
10,AGCAGATC,0.0918
11,GGATAAAC,0.0587
12,CGTGTGTC,-0.1
13,CAGTACAA,0.265
14,ATAGAAAG,0.303
15,CGGAATCC,-0.195
16,ACCACTCC,-0.0152
17,CACTGCGG,-0.232
18,ATTAACGG,0.0398
19,TAGTGTCA,0.138
20,AAAGGAGA,-0.151
21,CATTCTAG,0.259
22,AGTAATTA,0.381
23,AAATAATA,0.312
24,TGCTGACA,-0.163
25,AGTACCGA,0.279

row,Sequence,binding signal [E-score]
1,AAGTTCCA,-0.0441
2,AATCAAAC,0.143
3,GACCATGC,-0.239
4,AAGCGTAA,-0.0183
5,GAATCCTC,-0.148
6,CCTTTAGC,-0.103
7,GCTTGCAC,-0.141
8,ACATGCCG,-0.101
9,AACAGAAA,0.133
10,CCGTGCCG,-0.181
11,CCCGCCGC,-0.444
12,CTAAGATC,-0.0713
13,AGCACGAG,-0.172
14,ATCATCAC,0.11
15,GCGTTTAC,-0.00863
16,AAAGCATA,0.0447
17,AAAGAGGT,0.0872
18,TAGTTCCA,0.173
19,ATTTCCTA,0.176
20,GCCAAGCA,-0.294
21,AAATGCGC,0.0529
22,AATCCCGA,-0.0151
